According to PubChem BioAssay AID2551 (National Center for Advancing Translational Sciences (NCATS), 2010):
Among all 310,000 compounds or so, about 17,000 (5.5%) were called active. Another 11% or so got no clear call; they are omitted. The call rests on the fitted dose curve; in most records, active means well fitted inhibition curve with a large enough effect; inconclusive means small, poorly fitted or top-dose-only effect, or effect the other way; inactive means no such curve, though single readings can be large or run the other way. The entries are a selection whose mix differs from that of the whole data set. Some structures have more than one record in an assay (separate samples or runs), and their calls can disagree.

What follows are compounds tested against Nuclear receptor ROR-gamma (Mus musculus) (UniProt P51450) (assay: qHTS for inhibitors of ROR gamma transcriptional activity). Conditions: Drosophila S2 Gal4-RORgamma UAS-luciferase reporter, 20 h; series mostly up to 53.6 µM; activity change, negative = inhibition: at the top concentration.
Source text: NIH Molecular Libraries Probe Production Network [MLPCN] NIH Chemical Genomics Center [NCGC] MLPCN Grant: R03 DA026211-01 Assay Provider: Dan Littman, New York University Assay Overview: The retinoic acid-related orphan receptor (ROR) gamma is a transcription factor that has a central role in the differentiation of Th17 cells, a subset of T helper cells that secrete the inflammatory cytokines IL-17, IL-17F, and IL-22. Th17 cells have been implicated in graft versus host disease, autoimmune disease and asthma. ROR gamma is induced in naive T helper cells in the presence of TGF-beta combined with IL-6, IL-21, or IL-23, and thereafter directs the expression of the Th17 lineage cytokines. To study the mechanism of action of ROR gamma, an insect cell-based assay was screened. This Drosophila Schneider cell line was stably transfected with two vectors: a gene expressing a fusion of the Gal4 DNA binding domain and ROR gamma transactivation domain under the control of the metallothionine promoter and a Photinus luciferase reporter regulated by the Gal4 binding site enhancer, UAS. […] Small molecule inhibitors of ROR gamma activity are detected by a decrease in luciferase reporter activity.
Assay Protocol Summary: For screening, 600 cells in 4 uL/well were dispensed into white solid 1536-well plates (Grenier) using a solenoid-based dispenser. Following transfer of 23 nL compound or DMSO vehicle by a pin tool, the plates were incubated 1 hr at ambient temperature, and 1 uL/well copper sulfate (700 uM final concentration) was added. The plates were centrifuged 15 s at 1000 RPM and incubated 20 hr at ambient temperature. After addition of 1.5 uL Photinus luciferase detection reagent, the plates were incubated 10 min at ambient temperature and then read by an ViewLux (Perkin Elmer) to detect luminescence. Keywords: NIH Roadmap, MLPCN, MLI, MLSMR, qHTS, NCGC, qHTS, nuclear hormone receptor, retinoic acid-related orphan receptor, ROR gamma
Further: nearly all actives have a fitted effect of over 60% in size.
On the % scale 0 is the no-effect control and ±100 the full control effect; potency means the concentration at half of the fitted maximal effect.

UniProt P51450, sequence (P51450 whole entry, looked up, the tested form may be a part): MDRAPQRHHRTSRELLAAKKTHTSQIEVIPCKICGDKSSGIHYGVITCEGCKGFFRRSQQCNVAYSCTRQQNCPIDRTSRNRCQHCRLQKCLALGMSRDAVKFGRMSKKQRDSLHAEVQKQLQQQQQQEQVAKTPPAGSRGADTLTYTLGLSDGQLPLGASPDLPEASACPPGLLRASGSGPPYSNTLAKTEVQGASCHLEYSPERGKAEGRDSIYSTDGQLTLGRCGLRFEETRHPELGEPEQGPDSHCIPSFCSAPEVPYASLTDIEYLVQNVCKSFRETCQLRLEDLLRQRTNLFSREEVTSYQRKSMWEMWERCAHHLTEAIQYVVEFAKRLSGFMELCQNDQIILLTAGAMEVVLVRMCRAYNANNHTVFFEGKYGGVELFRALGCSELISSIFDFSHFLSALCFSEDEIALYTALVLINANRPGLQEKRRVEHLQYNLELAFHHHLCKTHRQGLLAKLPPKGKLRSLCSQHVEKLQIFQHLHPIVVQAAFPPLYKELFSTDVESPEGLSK

Row | Compound | activity change, negative = inhibition | Potency
1 | CC(C)(O)C1C2OC(=O)C1C1(O)CC3OC34C(=O)OC2C14C (stereo unspecified) | inactive: 42.9% | 
2 | CN1C(=O)CCS(=O)(=O)[C@@H]1c1ccc(Cl)cc1 | inactive: 12.2% [at 16.9 µM] | 
3 | COc1cc2c(cc1O)CC1c3c(cc(O)c(OC)c3-2)CCN1C (stereo unspecified) | inactive | 
4 | C[C@]12CC[C@H]3C(=CCc4cc(O)ccc43)[C@@H]1CCC2=O | inactive: 12.6% | 
5 | CC(=O)c1c(O)c(C)c(O)c(Cc2c(O)c3c(c(C(=O)/C=C/c4ccccc4)c2O)OC(C)(C)C=C3)c1O | inactive: 15.8% | 
6 | CN1C(=O)CCS(=O)(=O)C1c1ccc(Cl)cc1 (stereo unspecified) | inactive | 
7 | c1ccc2c(c1)OCC(C1=NCCN1)O2 (stereo unspecified) | inactive: -3.5% | 
8 | O=C(O)c1cc(O)c(O)c(O)c1 | inactive: 1.5% | 
9 | Cc1ccc(/C=C2/C(=O)NC(=O)N(CCc3ccc(F)cc3)C2=O)o1 | inactive: 24.9% | 
10 | CO/C1=C\C(C)=C\[C@@H](C)[C@@H](O)[C@@H](C)C/C(C)=C/C=C\[C@H](OC)C([C@@H](C)[C@@H](O)[C@H](C)[C@@]2(O)C[C@@H](O)[C@H](C)C(C(C)C)O2)OC1=O (stereo partly specified) | inactive: 44.3% [at 1.91 µM] | 
11 | C[C@@]12CC[C@H]3[C@@H](CCC4=CC(=O)CC[C@]43C)[C@H]1CC[C@H]2C(=O)CO | inactive: -1.21% [at 16.9 µM] | 
12 | O=C(O)c1nn(Cc2ccc(Cl)cc2Cl)c2ccccc12 | inactive | 
13 | O=c1[nH]oc2c1CCNC2 | inactive | 
14 | O=C1CN(O)C(c2ccccc2)=c2cc(Cl)ccc2=N1 | inactive: 7.12% | 
15 | C[C@H](CCC(=O)O)C[C@H](C)C[C@H](C)C(=O)/C=C(\O)[C@H](C)C[C@H](C)C/C=C/[C@@H](C)[C@@H](O)[C@@H](C)[C@@H](O)C[C@@H]1CC[C@@](C)([C@H]2CC[C@@](C)([C@@H](C)O)O2)O1 | inactive: -2.34% | 
16 | O=c1ccc2cc(O[C@H]3O[C@@H](CO)[C@@H](O)[C@@H](O)[C@@H]3O)c(O)cc2o1 | inactive: -5.9% [at 2.98 µM] | 
17 | O=c1c2ccccc2[se]n1-c1ccccc1 |  | active: 10000 nM
18 | CCNc1nc(Cl)nc(NC(C)C)n1 | inactive | 
19 | C[N+]1(C)[C@@H]2CC(OC(=O)[C@H](CO)c3ccccc3)C[C@H]1[C@@H]1O[C@@H]12 (stereo partly specified) | inactive | 
20 | Cc1cc(O)ccc1Cl | inactive: 10% | 
21 | COC(=O)[C@@]1(Cc2ccc(F)cc2)[C@H]2c3cc(C(=O)N(C)C)[nH]c3C[C@H]2CN1C(=O)c1ccccc1 | inactive: 20.9% | 
22 | CCCCC/C=C\C/C=C\C/C=C\C/C=C\CCCC(=O)Nc1ccc(O)cc1C | inactive: 2.32% | 
23 | CC[C@]12C=CCN3CCC4(c5cc(Br)c(OC)cc5N(C)C4[C@@](O)(C(=O)OC)[C@@H]1OC(C)=O)C32 (stereo partly specified) | inactive: 24.9% | 

Row | Compound | activity change, negative = inhibition | Potency
24 | CC(C)CC(N(C)C)C1(c2ccc(Cl)cc2)CCC1 (stereo unspecified) | inactive: 0.894% | 
25 | O=C1C=C2C=C[C@H]3C[C@]2(O1)[C@@H]1CCCCN13 | inactive: 8.84% | 
26 | NC(N)=NC(=O)c1nc(Cl)c(N)nc1N | inactive | 
27 | CCCCCCCCCCCCCC(=O)OC1C(C)[C@@]2(O)C(C=C(CO)C[C@]3(O)C(=O)C(C)=C[C@H]23)[C@@H]2C(C)(C)[C@]12OC(C)=O (stereo partly specified) | inactive: -15.1% | 
28 | CCSc1nnc(C(N)Cc2ccccc2)o1 (stereo unspecified) | inactive: 4.98% | 
29 | O=C(O)c1ccccc1-c1c2cc(Br)c(=O)cc-2oc2[c]([Hg])c(O)c(Br)cc12 | inactive: 5% [at 2.98 µM] | 
30 | OCC1OC(n2cnc3cc(Cl)c(Cl)cc32)C(O)C1O (stereo unspecified) | inactive: -31.4% | 
31 | CC(C)[C@@]1(NC(=O)[C@@H]2C[C@@H]3c4cccc5[nH]cc(c45)C[C@H]3N(C)C2)O[C@@]2(O)[C@@H]3CCCN3C(=O)[C@H](Cc3ccccc3)N2C1=O | inactive: 14.2% | 
32 | CC1(C)C(=O)C=C[C@]2(C)[C@H]3CC[C@@]4(C)[C@H](c5ccoc5)OC(=O)[C@H]5O[C@]54[C@]3(C)[C@H](O)C[C@@H]12 | inactive: -2.49% | 
33 | CC(=O)N1CCN(c2ccc(OC[C@H]3CO[C@](Cn4ccnc4)(c4ccc(Cl)cc4Cl)O3)cc2)CC1 | inactive | 
34 | COP(=S)(OC)Oc1ccc([N+](=O)[O-])cc1 | inactive: 8.08% | 
35 | CCCC/C(C)=C/[C@@H](NP(=O)(c1ccccc1)c1ccccc1)c1ccccc1 | inactive: -1.79% | 
36 | COC1=CC(=O)OC(/C=C/c2ccccc2)C1 (stereo unspecified) | inactive: -18.7% | 
37 | O=C(NC(=O)c1c(F)cccc1F)Nc1cc(Cl)c(OC(F)(F)C(F)C(F)(F)F)cc1Cl (stereo unspecified) | inactive: -25.3% | 
38 | Fc1ccc(C(OCCN2CCN(CCCc3ccccc3)CC2)c2ccc(F)cc2)cc1 | inactive: 3.56% [at 16.9 µM] | 
39 | Oc1ccc2c3c1O[C@H]1c4[nH]c5ccccc5c4C[C@@]4(O)C(C2)N(CC2CC2)CC[C@]314 | inactive: 6.28% | 
40 | CN1CC[C@@]2(C)c3cc(O)ccc3N(C)[C@@H]12 | inactive: -42.4% | 
41 | O=C1NC(=O)N(CCC2=CCCCC2)C(=O)/C1=C/c1cccs1 | inactive: 29.8% | 
42 | CNC(=O)[C@H]1C[C@@H]1[C@H](NP(=O)(c1ccccc1)c1ccccc1)c1ccccc1 | inactive: -2.38% | 
43 | C=C(C)[C@@H]1CC[C@]2(C(=O)O)CC[C@]3(C)[C@H](CC[C@@H]4[C@@]5(C)CC[C@H](O)C(C)(C)[C@@H]5CC[C@]43C)[C@@H]12 | inactive: -20.6% | 
44 | C=C1C(=O)O[C@@H]2C[C@@H](C)[C@@H]3C=CC(=O)[C@@]3(C)[C@@H](OC(=O)CC(=O)O[C@H]3[C@@H]4C(=C)C(=O)O[C@@H]4C[C@@H](C)[C@@H]4C=CC(=O)[C@]43C)[C@H]12 |  | active: 1120 nM
45 | CC(C)=CCCC1(C)C=Cc2c(O)c3c(c(CC=C(C)C)c2O1)OC12C(=CC4CC1C(C)(C)OC2(C/C=C(/C)C(=O)O)C4O)C3=O (stereo unspecified) |  | active: 2820 nM
46 | O=c1ccc2cc(O[C@@H]3O[C@@H](CO)[C@H](O)[C@@H](O)[C@@H]3O)c(O)cc2o1 | inactive: -15.5% | 
